Reference: PubChem BioAssay AID686978 (National Center for Advancing Translational Sciences (NCATS), 2013)
Several values for one entry are separate records, joined by “and”; a condition that tells them apart may be missing. Equal values may be shown once. The whole screen tested about 420,000 compounds, of which about 64,000 (15%) were called active. The inconclusive results got no clear call from the source; some entries with a clear call stand among them for comparison. Calls come from the whole dose curve; as a rule, active = well fitted inhibition curve with a large enough effect; inconclusive = small, poorly fitted or top-dose-only effect; inactive = flat fitted curve, though single readings scatter. Where the call is inconclusive, the potency comes from a doubtful curve fit.

assay: qHTS for Inhibitors of human tyrosyl-DNA phosphodiesterase 1 (TDP1): qHTS in cells in absence of CPT; details: DT40 Tdp1-/- hTDP1 cells, no CPT, ATP luminescence, 48 h; activity change, negative = growth inhibition: at 46.2 µM (top of the series) unless noted; note: nearly all actives have a fitted effect of over 55% in size
How it was run: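 Chicken DT40 Tdp1-/- cells complemented with human TDP1, screened without camptothecin (DMSO vehicle only), 400 cells/well. Compounds pin-transferred, cells incubated at 37 °C for at least 48 hr. Growth read as ATP-dependent luminescence (CellTiter-Glo, 30 min at RT).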
% is set by controls: 0 for no effect and ±100 for the full control effect; potency is the fitted concentration of half-maximal effect; tags give direction and shape of the fitted curve.

**Q.** With `COc1cc(/C=N/NC(=O)c2cccc(C)c2)ccc1OCC(=O)Nc1ccccc1` as the molecule, how does the Potency read?
**A.** active: 18.4 µM

**Q.** With `CCOC(=O)N/N=C\c1ccc([N+](=O)[O-])s1` as the molecule, how does the Potency read?
**A.** active: 23.1 µM

**Q.** Which Potency does the source give for `COc1cc(C(=O)OCC(=O)Nc2ccc(S(=O)(=O)N3CCCC3)cc2)cc(OC)c1OC` here?
**A.** inconclusive: 23.1 µM [inhibitor, single point]

**Q.** For `Nc1c(-c2nc(-c3ccc4c(c3)OCO4)cs2)c2ccccn2c1C(=O)c1ccccc1`, which Potency is on record?
**A.** inconclusive: 9.2 µM [inhibitor, partial curve]

**Q.** For `COc1cc(C)c(S(=O)(=O)N2CCN=C2c2ccccc2)cc1C`, which Potency is on record?
**A.** inconclusive: 29.1 µM [inhibitor, single point]

**Q.** Which Potency does the source give for `COc1ccc(OC)c(-c2cc(C(=O)N3CCN(c4ccccc4)CC3)no2)c1` here?
**A.** active: 20.6 µM

**Q.** For `Nn1c(COc2ccccc2)nc2ccccc2c1=O`, which Potency is on record?
**A.** inconclusive: 29.1 µM [inhibitor, single point]

**Q.** With `Clc1ccc(OCc2nn3c(-c4ccco4)nnc3s2)cc1` as the molecule, how does the Potency read?
**A.** active: 18.4 µM

**Q.** Which Potency does the source give for `Cc1cc(CNC(=O)C(C)n2nc(C)c([N+](=O)[O-])c2C)c2ccccc2n1` (configuration not stated) here?
**A.** inconclusive: 16.4 µM [inhibitor, single point]

**Q.** With `O=C(c1ccccc1)C(O)c1ccccc1` (configuration not stated) as the molecule, how does the Potency read?
**A.** inactive

**Q.** With `O=C(O)CC(Cc1ccc(Br)cc1)C(=O)Nc1ccccc1` (configuration not stated) as the molecule, how does the “activity change, negative = growth inhibition” value read?
**A.** inactive: -13.9%

**Q.** For `CC(C)Oc1ccc(CNC(=O)CCCn2c(=O)c3cccn3c3cccnc32)cc1`, which Potency is on record?
**A.** active: 16.4 µM

**Q.** Which “activity change, negative = growth inhibition” value does the source give for `CN1CCN(Cc2nnc(-c3ccccc3)o2)CC1` here?
**A.** inactive: 1.66%

**Q.** Which Potency does the source give for `COc1ccccc1NC(=O)CCCN1C(=O)C(c2ccccc2)Oc2cccnc21` (configuration not stated) here?
**A.** inconclusive: 23.1 µM [inhibitor, single point]

**Q.** For `O=C(NCc1ccc2c(c1)CCN2C(=O)c1ccncc1)c1ccc(Cl)cc1`, which Potency is on record?
**A.** inconclusive: 16.4 µM [inhibitor, single point]

**Q.** With `COc1ccc(OC)c(NC(=O)CC2SC(=Nc3ccc(F)cc3)N(CCC3=CCCCC3)C2=O)c1` (configuration not stated) as the molecule, how does the Potency read?
**A.** inconclusive: 16.4 µM [inhibitor, single point]

**Q.** Which “activity change, negative = growth inhibition” value does the source give for `COc1ccc(NC(C)=O)cc1NC(=O)c1ccc(C#N)cc1` here?
**A.** inactive: -13.4%

**Q.** Which Potency does the source give for `Cc1ccc(NC(=O)c2ccc(OC(=O)COc3cccc(Cl)c3)cc2)cc1` here?
**A.** inconclusive: 25.9 µM [inhibitor, single point]

**Q.** For `CC(NC(=O)c1cn(C)c2ccc(S(=O)(=O)N3CCCC3)cc2c1=O)c1ccc2c(c1)OCCO2` (configuration not stated), which Potency is on record?
**A.** inconclusive: 29.1 µM [inhibitor, single point]

**Q.** For `CCOC(=O)C1=C(C)N(C[C@@H]2CC[C@@H](Cc3ccc4cc(OC)ccc4c3)O2)C(=O)NC1c1ccc(OC)cc1` (some centres not stated), which Potency is on record?
**A.** inconclusive: 29.1 µM [inhibitor, single point]

**Q.** With `Cc1cc(C)n2nc(C(=O)OCC(=O)N(C)CC(=O)Nc3ccccc3Cl)nc2n1` as the molecule, how does the “activity change, negative = growth inhibition” value read?
**A.** inactive: -14.4%

**Q.** For `CCCCCCSc1ccc([C@@H]2[C@@H]3C(=O)N(CC)C(=O)[C@@H]3[C@]3(C(=O)OC)CCCCN23)cc1OC`, which Potency is on record?
**A.** active: 25.9 µM

**Q.** Which “activity change, negative = growth inhibition” value does the source give for `Cc1[nH]n(-c2ccccc2)c(=O)c1C=Nc1cnc2ccccc2c1` here?
**A.** inactive: -25.8%

**Q.** With `COc1cc(C(=O)NNC(=O)c2cc(-c3ccccc3)n[nH]2)cc(OC)c1C` as the molecule, how does the “activity change, negative = growth inhibition” value read?
**A.** inactive: -15.1%

**Q.** With `Cc1cc(C(=O)N2CCC2(C)C(=O)Nc2cccc3c2CCCC3)nn1C` (configuration not stated) as the molecule, how does the Potency read?
**A.** inconclusive: 25.9 µM [inhibitor, single point]

**Q.** For `CCn1c(=O)c2cc(C(=O)NCCC(C)C)sc2c2ccccc21`, which Potency is on record?
**A.** inconclusive: 29.1 µM [inhibitor, single point]

**Q.** Which Potency does the source give for `O=C(CSc1nc(-c2ccccc2)cn1-c1ccccc1)Nc1ccccc1` here?
**A.** inconclusive: 23.1 µM [inhibitor, single point]

**Q.** For `COc1cccc(C(=O)NC2=NC(c3ccc(N(C)C)cc3)CC(=O)N2)c1` (configuration not stated), which “activity change, negative = growth inhibition” value is on record?
**A.** inactive: -24.2%

**Q.** For `CCn1c(NCc2cccc(Cl)c2)nc2ccccc21`, which Potency is on record?
**A.** active: 23.1 µM

**Q.** For `C=CCNC(=O)/C(C#N)=C/c1ccc(SC)cc1`, which Potency is on record?
**A.** inconclusive: 7.31 µM [inhibitor, partial curve]

**Q.** For `O=c1cc(-c2ccc(O)cc2)oc2ccc(O)cc12`, which Potency is on record?
**A.** inconclusive: 18.4 µM [inhibitor, single point] and inconclusive: 1.3 µM [inhibitor, full curve]

**Q.** With `C[C@H](NC(=O)c1nc[nH]c1C(=O)N[C@@H](CCCCN)C(=O)OC(C)(C)C)C(=O)OC(C)(C)C` as the molecule, how does the “activity change, negative = growth inhibition” value read?
**A.** inactive: -12.6%

**Q.** With `CC(C)N(Cc1ccccc1)C(=O)C1CCCN(c2ncnc3c2nc2n3CCCCC2)C1` (configuration not stated) as the molecule, how does the Potency read?
**A.** active: 18.4 µM

**Q.** Which Potency does the source give for `O=C(/C=C/c1ccc(S(=O)(=O)N2CCOCC2)cc1)NCc1ccccc1Cl` here?
**A.** inconclusive: 29.1 µM [inhibitor, single point]

**Q.** With `NC1=NC(=O)/C(=C/C=C/c2cccs2)S1` as the molecule, how does the Potency read?
**A.** inconclusive: 14.6 µM [inhibitor, partial curve]

**Q.** For `COc1ccc(C2CC(=O)c3cnc(N4CCN(Cc5ccccc5)CC4)nc3C2)cc1` (configuration not stated), which Potency is on record?
**A.** active: 23.1 µM

**Q.** For `CN1C(=O)/C(=C2/C=Cc3ccccc3N2CCCS(=O)(=O)O)SC1=S`, which “activity change, negative = growth inhibition” value is on record?
**A.** inactive: 0.889%

**Q.** For `Cc1ccc(-c2nn(-c3ccccc3)cc2C2SCC(=O)N2Cc2ccccc2)o1` (configuration not stated), which Potency is on record?
**A.** active: 8.2 µM

**Q.** For `Cc1ccc(S(=O)(=O)Nc2nc(C)c(C(=O)N/N=C/c3ccccc3)s2)cc1`, which “activity change, negative = growth inhibition” value is on record?
**A.** inactive: -13.5%

**Q.** Which Potency does the source give for `COC(=O)c1c(NC(=O)CC2SC(N)=NC2=O)sc2c1CCC(C)C2` (configuration not stated) here?
**A.** inconclusive: 16.4 µM [inhibitor, single point]

**Q.** Which “activity change, negative = growth inhibition” value does the source give for `CCOC(=O)C(C(=O)NCC1CCCO1)C1CCCCC1` (configuration not stated) here?
**A.** inactive: -17.4%

**Q.** For `O=C(NCCCN1CCCCC1)c1cc(Sc2ccc(Cl)cc2)nc2ccccc12`, which Potency is on record?
**A.** active: 23.1 µM

**Q.** With `CN(C)Cc1cc2ccccc2c2c1COC2` as the molecule, how does the activity change, negative = growth inhibition read?
**A.** inconclusive: -26% [inhibitor]

**Q.** With `Cc1cc(Cl)ccc1OCC(=O)Nc1ccncc1` as the molecule, how does the Potency read?
**A.** active: 5.8 µM

**Q.** For `Brc1ccccc1Cn1c(-c2cscn2)nc2ccccc21`, which Potency is on record?
**A.** inconclusive: 25.9 µM [inhibitor, partial curve]

**Q.** With `CCOC(=O)N1CCN(S(=O)(=O)c2ccc(C(=O)N(CCCN(C)C)c3nc4ccc(OC)cc4s3)cc2)CC1` as the molecule, how does the Potency read?
**A.** inconclusive: 18.4 µM [inhibitor, single point]

**Q.** With `O=C(c1cccc(Cl)c1)C1CCCN(S(=O)(=O)c2ccccc2)C1` (configuration not stated) as the molecule, how does the Potency read?
**A.** inconclusive: 23.1 µM [inhibitor, single point]
